Measured values as given in PubChem BioAssay AID463173 (ICCB-Longwood Screening Facility, Harvard Medical School, 2010).
The whole screen tested about 52,000 compounds, of which about 4,300 (8.3%) were called active. Cut-off read from the data, not from the text of the source: active = survival mostly below about 52% (no sharp cut-off); inactive = mostly above about 56%. The list shows a part of the results.

system: DeltatarO mutant; test: growth inhibition of S. aureus wild type versus tarO mutant, primary screen, teichoic acid synthesis inhibitors, RN4220, OD600 (AID 463173); settings: OD600, 18 h, active compounds read low, screened at 18.75 µg/mL (by protocol)

Compound	survival
COc1ccc(CN(CCN)C2CC(C)N(C)CC2C)cc1 (centres undefined)	inactive: 99%
O=C(CSC1=Nc2ccccc2C2=NC(Cc3ccccc3)C(=O)N12)Nc1cccc(Cl)c1 (centres undefined)	inactive: 67%
CCc1ccc2occ(CC(=O)Nc3c(C(=O)c4ccccc4)oc4ccccc34)c2c1	inactive: 95%
CCN1C(=O)c2ccccc2Sc2ccc(NC(=O)Nc3cc(C)cc(C)c3)cc21	inactive: 67%
CCOc1cc(S(=O)(=O)NC2CC2)c(OCC)cc1-n1cnnn1	inactive: 81%
CCCN1CC=C2C(C1)C(c1ccc(C(=O)OC)cc1)C(C#N)=C(N)C2(C#N)C#N (centres undefined)	active: 51%
CCOC(=O)c1c(C)oc2ccc(N(C(=O)c3ccncc3)S(=O)(=O)c3ccc(F)cc3C)cc12	inactive: 79%
Cc1ccc(C(C)C)cc1S(=O)(=O)Nc1ccccn1	inactive: 101%
O=C(Cn1c(=O)n(-c2ccccc2)c(=O)c2c3c(sc21)CCC3)c1ccc(Br)cc1	inactive: 76%
Cc1cccc(CS(=O)(=O)Cc2ccc(C(=O)NCc3ccc(F)cc3)o2)c1	inactive: 81%
COc1cccc(NC(=O)c2cnc(SCC(=O)N3CCCc4ccccc43)n(C)c2=O)c1	inactive: 68%
COc1ccccc1N1CCN(S(=O)(=O)c2cc(C(=O)Nc3ccc(Oc4ccccc4)cc3)ccc2F)CC1	inactive: 72%
COc1cccc(CNC(=O)c2nn(C)c3c2CSc2ccccc2-3)c1	inactive: 75%
COc1ccc(NC(=O)c2cnc3cc(C)ccn3c2=O)c(OC)c1	inactive: 101%
Cc1c(CN2CCCCC2)c(O)n(CCO)c(=O)c1C#N	inactive: 99%
Cc1ccc(C)c(CN2CCCN(Cc3ccccc3C)S2(=O)=O)c1	inactive: 87%
Cc1cc(C)cc(NC(=O)CN2C(=O)c3ccccc3Sc3ccc(C(=O)N4CCCC4)cc32)c1	inactive: 79%
O=C(CN1C(=O)CCc2cc(Br)ccc21)Nc1ccc(OC(F)(F)F)cc1	inactive: 98%
CCOC(=O)c1ccc(Nc2c(-c3ccc(N(C)C)cc3)nc3nc[nH]n23)cc1	inactive: 102%
COc1ccc(CCn2c(-c3ccco3)nc3ccccc3c2=O)cc1OC	inactive: 60%
COc1ccccc1NC(=O)CSc1nnc2c(n1)[nH]c1ccccc12	inactive: 77%
CC1C=CCC2C(=O)N(c3ccc(OC(=O)c4ccco4)cc3)C(=O)C12 (centres undefined)	inactive: 83%
COc1ccc(NC(=O)CN(C)S(=O)(=O)c2ccc3c(c2)CCC(=O)N3)c(OC)c1	inactive: 96%

Compound	survival
COc1ccc(OC)c(NC(=O)Cn2c(=O)n(CC3CCCO3)c(=O)c3cc(OC)c(OC)cc32)c1 (centres undefined)	inactive: 90%
CCOc1ccccc1CNC(=O)CN1C(=O)CSc2ccc(S(=O)(=O)N3CCOCC3)cc21	inactive: 73%
Cc1ccc(CNC(=O)c2cnc(N3CCCCC3)c3ccccc23)cc1	inactive: 80%
CCc1ccc(NC(=O)CSc2nc3c(sc4ccccc43)c(=O)n2CCCOC)cc1	inactive: 77%
CCOC(=O)CNc1nc2ccccc2n2c(C)nnc12	inactive: 83%
O=C(c1ccc2c(c1)CCN2S(=O)(=O)c1ccccc1)N1CCN(c2cccc(Cl)c2)CC1	inactive: 45%
COc1ccccc1CNC(=O)CCc1c(C)nc2c(c(C)nn2-c2ccc(C)c(C)c2)c1C	inactive: 69%
O=C(CC1CCCCC1)Nc1cccnc1	inactive: 101%
CC1CCC(NC(=O)c2ccc3c(c2)N(Cc2ccccc2)C(=O)c2ccccc2S3(=O)=O)CC1 (centres undefined)	inactive: 115%
CC(C)(C)OC(=O)N1CCC(c2c(C(=O)NCc3ccccc3)cnn2-c2ccccc2)CC1	inactive: 102%
CCCCn1c(=N)c(S(=O)(=O)c2ccc(Cl)cc2)cc2c(=O)n3cccc(C)c3nc21	inactive: 76%
CN(c1ccccc1C(=O)N1CCN(Cc2ccc3c(c2)OCO3)CC1)S(C)(=O)=O	inactive: 85%
Cc1cccc(Nc2c(-c3cccs3)nc3nc(C)cc(C)n23)c1	inactive: 151%
O=C(NC(=O)c1ccccc1)Nc1ccc(-n2nc(C(F)(F)F)cc2C(F)(F)F)cc1	inactive: 173%
COc1ccc(C)cc1NC(=O)Cn1c(=O)nc(-c2ccccc2F)c2cc(Cl)ccc21	inactive: 84%
COC(=O)c1cc(NC(=O)C2CCCN(S(=O)(=O)c3c(C)n[nH]c3C)C2)cc(C(=O)OC)c1 (centres undefined)	inactive: 95%
O=c1nc2c(-c3ccc(F)cc3Cl)n[nH]n2c2ccccc12	inactive: 90%
CC1CCCC(NS(=O)(=O)c2cccs2)C1C (centres undefined)	inactive: 81%
COCc1cc(C)nc2sc(C(=O)Nc3ccc(OC(F)(F)F)cc3)c(N)c12	inactive: 77%
Cc1c(C(=O)OCC2CCCCC2)[nH]c2c1C(=O)CC(c1ccc(F)cc1)C2 (centres undefined)	inactive: 134%
CCSc1nc2ccc(C)cc2cc1C#N	inactive: 87%
Cc1ccc(C)c(OCCn2cc(C(=O)c3cccs3)c3ccccc32)c1	inactive: 70%
CCOC(=O)/C(C#N)=C(\O)c1ccccc1	inactive: 86%

Compound	survival
O=[N+]([O-])c1ccc(S(=O)(=O)NCc2nc3cccnc3n2Cc2ccccc2Cl)cc1	inactive: 68%
O=C(c1ccc(F)c(F)c1)N1CCc2ccccc2C1	inactive: 75%
Cc1cccc(C(=O)N2CCc3cc(CNC(=O)c4ccc(Br)o4)ccc32)c1	inactive: 94%
CCCc1nc2nc(C)c(NS(=O)(=O)c3ccc(F)cc3)c(=O)n2[nH]1	inactive: 84%
COc1cc(OC)c2c(C)c(CC(=O)NCCc3ccccc3OC)c(=O)oc2c1	inactive: 70%
CCc1ccc(S(=O)(=O)c2cnc3ccc(OC)cc3c2N2CCCC(C)C2)cc1 (centres undefined)	inactive: 88%
Cc1cc(C(=O)N2CCN(c3ccc(F)cc3)CC2)c2c(C)nn(-c3cccc(Cl)c3C)c2n1	inactive: 128%
N#CC1=C(N)Oc2c(c(=O)oc3ccccc23)C12C(=O)Nc1ccccc12 (centres undefined)	inactive: 102%
COc1ccc(CNC(=O)Cn2c(=O)nc(-c3ccccc3F)c3cc(Cl)ccc32)cc1OC	inactive: 122%
N#Cc1cccc(Nc2ncnc3c2cnn3-c2cccc(Cl)c2)c1	inactive: 72%
Cc1ccc(Cl)cc1-n1ncc2c(NC3CCCCC3)ncnc21	inactive: 54%
O=C(CSc1nncn2c1cc1occc12)Nc1ccccc1C(F)(F)F	inactive: 74%
CCOC(=O)C1CCCN(S(=O)(=O)c2ccc3c(c2)CCN3C(=O)CC)C1 (centres undefined)	inactive: 94%
CCc1ccccc1NC(=O)CN(c1cccc(C)c1C)S(C)(=O)=O	active: 54%
Cc1ccc(C(=O)O)cc1-n1c(C)ccc1-c1ccccc1	inactive: 59%
CCOC(=O)c1c(C)[nH]c(CCC(=O)Nc2c(Cl)cc(OC)cc2OC)c1C	inactive: 90%
Cc1cc(C)c(NC(=O)Cn2c(=O)n(Cc3ccc4c(c3)OCO4)c(=O)c3ccccc32)c(C)c1	inactive: 95%
CCC1=Nc2cc(C(=O)NCc3ccccc3Cl)ccc2Sc2ccc(C)cc21	inactive: 69%
Cc1nnc(NCc2ccccc2)c2ccccc12	inactive: 98%
O=S1(=O)C=C(Sc2nc3ccccc3s2)c2ccccc21	active: 4%
CCOC(=O)c1ccc(NC(=O)C(CC)Sc2nnc3c4ccccc4n(C)c3n2)cc1 (centres undefined)	inactive: 143%
Cc1ccc(C)c(NC(=O)Cn2nnc(C(=O)NCCc3ccccc3)c2N)c1	inactive: 92%
Cc1ccc(Nc2c(-c3ccsc3)nc3cccc(C)n23)cc1	active: 25%

Compound	survival
COc1ccc(Cl)cc1NC(=O)CSC1=Nc2ccccc2C2=NC(CC(=O)NC3CCCCC3)C(=O)N12 (centres undefined)	inactive: 90%
CCOC(=O)CNC(=O)c1ccc(-c2nn(C)c(=O)c3ccccc23)cc1	inactive: 69%
CCc1ccc(NCc2cc3ccc(OC)cc3n(CC(=O)Nc3ccc(C(C)C)cc3)c2=O)cc1	inactive: 87%
CCOC(=O)c1ccc2nsnc2c1	inactive: 93%
Cc1c(NC(=O)CC(C)C)cccc1-c1nc2cccnc2s1	inactive: 107%
O=C(CSc1cn(CCNC(=O)c2ccccc2F)c2ccccc12)Nc1ccccc1F	inactive: 80%
COc1cccc(-n2c(SCC(=O)Nc3cccc(Cl)c3)nc3c(oc4ccccc43)c2=O)c1	inactive: 85%
COc1ccc(/C=C\C(=O)NC2CC(=O)N(c3ccc(F)cc3)C2)cc1OC (centres undefined)	inactive: 77%
CCOc1ccccc1CNC(=O)c1ccc(-c2nc(CSc3ccc(C)cc3)c(C)o2)cc1	inactive: 72%
O=C(NCc1ccc(F)cc1)C1CCCN(c2ncnc3onc(-c4ccc(F)cc4)c23)C1 (centres undefined)	inactive: 107%
COc1ccc(-n2c(=O)c3c(C)c(C)sc3n(CC(=O)NCc3ccc(C)cc3)c2=O)c(OC)c1	inactive: 78%
CS(=O)(=O)c1oc(-c2ccc(F)cc2)nc1S(=O)(=O)c1ccc(Cl)cc1	active: -5%
O=C(CSc1nc2c(sc3ccccc32)c(=O)n1CCCC(=O)NC1CCCC1)Nc1ccc(F)cc1	inactive: 85%
CCOC(=O)C1CCN(C(=O)CN2c3ccc(C(C)C)cc3-c3ccccc3S2(=O)=O)CC1	inactive: 101%
CCOc1ccc(OC(=O)c2cn(-c3cccc(OC)c3)c(=O)c3ccccc23)cc1	inactive: 74%
COc1cc(C2NC(=O)N(C)C3=C2C(=O)N(c2cccc(Cl)c2)C3)ccc1O (centres undefined)	inactive: 77%
CCOC(=O)c1c(NC(C)=O)c2c3c(sc2n1Cc1ccc(Cl)cc1)CCCC3	inactive: 95%
Cc1ccc(NC(=O)c2ccc3oc(=O)c(S(=O)(=O)c4ccccc4)cc3c2)cc1C	inactive: 85%
Cc1ccc(NC(=O)Cn2nnc(-c3nc(-c4ccncc4)no3)c2N)c(C)c1	inactive: 92%
CC(SCc1ccccc1)C(=O)NCc1ccccn1 (centres undefined)	inactive: 77%
